Hit rate of the full screen: of about 310,000 compounds, about 14,000 (4.5%) showed an effect of 50% or more. The effect is printed as a negative number. Some of the results follow.
Molecular target: human ether-à-go-go-related gene (hERG) potassium channel (human, UniProt Q12809)
Test: primary screen, population patch clamp on CHO cells stably expressing hERG
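Note: peak tail current of the secondary pulse compared with the same well before compound.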

Sequence of human ether-à-go-go-related gene (hERG) potassium channel (Q12809 whole entry, looked up): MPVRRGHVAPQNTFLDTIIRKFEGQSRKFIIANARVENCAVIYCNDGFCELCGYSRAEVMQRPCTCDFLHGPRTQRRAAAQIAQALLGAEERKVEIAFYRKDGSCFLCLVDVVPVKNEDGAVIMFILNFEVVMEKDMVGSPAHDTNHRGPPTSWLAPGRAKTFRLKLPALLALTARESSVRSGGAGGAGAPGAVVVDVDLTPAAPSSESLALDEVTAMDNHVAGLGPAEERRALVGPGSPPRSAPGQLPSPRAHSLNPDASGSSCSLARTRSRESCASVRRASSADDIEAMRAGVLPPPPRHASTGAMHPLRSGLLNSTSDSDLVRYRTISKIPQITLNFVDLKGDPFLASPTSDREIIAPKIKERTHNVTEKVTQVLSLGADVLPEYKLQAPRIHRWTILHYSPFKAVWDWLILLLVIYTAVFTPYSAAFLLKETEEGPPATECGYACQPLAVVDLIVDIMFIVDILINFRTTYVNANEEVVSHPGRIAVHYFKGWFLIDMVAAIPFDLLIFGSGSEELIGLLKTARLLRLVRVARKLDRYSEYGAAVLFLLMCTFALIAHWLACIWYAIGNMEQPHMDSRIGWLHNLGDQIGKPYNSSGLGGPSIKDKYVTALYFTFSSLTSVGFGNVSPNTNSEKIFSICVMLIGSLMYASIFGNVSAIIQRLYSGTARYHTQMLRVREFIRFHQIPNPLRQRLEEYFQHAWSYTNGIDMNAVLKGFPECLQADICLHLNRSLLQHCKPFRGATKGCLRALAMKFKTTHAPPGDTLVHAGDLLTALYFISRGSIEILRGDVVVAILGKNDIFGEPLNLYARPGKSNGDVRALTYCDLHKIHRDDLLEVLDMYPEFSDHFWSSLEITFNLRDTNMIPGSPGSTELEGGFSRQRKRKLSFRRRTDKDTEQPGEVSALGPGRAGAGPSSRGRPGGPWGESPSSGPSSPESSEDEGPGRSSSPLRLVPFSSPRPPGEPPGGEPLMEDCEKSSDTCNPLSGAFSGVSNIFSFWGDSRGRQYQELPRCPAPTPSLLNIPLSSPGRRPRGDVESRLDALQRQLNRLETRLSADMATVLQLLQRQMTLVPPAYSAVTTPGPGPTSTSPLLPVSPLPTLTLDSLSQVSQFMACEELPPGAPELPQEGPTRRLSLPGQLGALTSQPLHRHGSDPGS

Structure (SMILES) | hERG current change (%, negative = inhibition) at 10uM [%]
COc1ccc(Oc2ncc(CN3CCN(c4ccccc4)CC3)s2)cc1 | -0.385
O=C(CSc1nc2ccccc2[nH]1)c1ccc(Cl)s1 | 4.27
O=C(NNC(=S)NC(=O)c1cn(-c2ccccc2)nc1-c1ccccc1)c1ccncc1 | 25.4
Cn1c(=NC(=O)C2CC2)sc2cc(F)cc(F)c21 | -12.3
O=c1oc2ccccc2c(NC2CCCCC2)c1NS(=O)(=O)c1ccc(F)cc1 | -3.45
COc1ccc(O)c(C(=O)c2cnn(-c3ccc(Cl)cc3)c2)c1 | 11.8
Cc1cc(C)nc(NS(=O)(=O)c2ccc(NC(=O)c3cc(-c4ccccc4)nc4ccccc34)cc2)n1 | -8.48
CC(=O)N1CCC2(CC1)C(C#N)=C(N)Oc1n[nH]c(C)c12 | 15.5
COc1ccccc1NC(=O)CN1CCN(CC(=O)Nc2ccccc2Cl)CC1 | 2.56
CCOC(=O)c1ccc(NC(=O)CCS(=O)(=O)c2cccc3nonc23)cc1 | 4.06
Cc1ccc(CNC(=S)NC2CCC(C(C)(C)C)CC2)cc1 (stereo not shown) | 10.8
O=C1CCCN2N=C(SCC(=O)Nc3nc4ccccc4s3)SC2=N1 | 2.87
CC(C)(C)OC(=O)N1CCN(C(=O)c2[nH]cnc2C(=O)NCC(=O)OCc2ccccc2)CC1 | -11.9
COC(=O)c1c(NC(=O)COC(=O)c2ccc(Cl)nc2)sc(C)c1C | 8.27
O=C(O)C1C2C=CC(C2)C1C(=O)NCCc1cccc(Cl)c1 (stereo not shown) | 11.1
CCOC(=O)N1CCN(C(=O)c2c[nH]c3ccc(S(=O)(=O)N(C)c4ccccc4C)cc3c2=O)CC1 | -1.1
O=C(c1ccc(N2CCN(CCO)CC2)nc1)N1CCOCC1 | 20.6
COc1ccc(S(=O)(=O)N2CCN(C)CC2c2ccccc2)cc1.Cl (stereo not shown) | 1.55
Cc1ccc(S(=O)(=O)N2CCN(Cc3nc4ccccc4n3C)CC2)cc1 | -53.5
COCc1cnc(C)nc1N | 19.4
CC1=C(OC(=O)C(C)(C)C)C(C)(C)C(c2ccccc2)OC1=O (stereo not shown) | -13.4
CCCn1c(SCC(=O)NCC2CCCO2)nc2c1c(=O)n(C)c(=O)n2C (stereo not shown) | 7.08
c1ccc(CSc2ccc(-c3cccnc3)nn2)cc1 | -13.7
Cc1cc(C)cc(C(=O)NCCCN2CCOCC2)c1 | 2.04
CC(=O)Cn1nnc(-c2ccc(C(F)(F)F)cc2)n1 | 6.1

Source: article PMC4336329 (PLoS ONE, 2015)
